The whole screen tested about 360,000 compounds, of which about 25,000 (6.9%) were called active. Inconclusive results, whose numbers are uncertain, are shown with a selection of clear calls. Calls follow the shape of the dose curve; as a rule, active = well fitted inhibition curve with a large enough effect; inconclusive = small, poorly fitted or top-dose-only effect; inactive = flat fitted curve, though single readings scatter. Where the call is inconclusive, the potency comes from a doubtful curve fit.
These molecules were tested against Luciferin 4-monooxygenase (Photinus pyralis) (UniProt P08659) (assay: qHTS profiling assay for firefly luciferase inhibitor/activator using purifed enzyme and Km concentrations of substrates (counterscreen for miR-21 project)). Details: purified FLuc, luminescence inhibition; series mostly up to 57.5 µM.
Sequence of UniProt P08659 (P08659 whole entry, looked up): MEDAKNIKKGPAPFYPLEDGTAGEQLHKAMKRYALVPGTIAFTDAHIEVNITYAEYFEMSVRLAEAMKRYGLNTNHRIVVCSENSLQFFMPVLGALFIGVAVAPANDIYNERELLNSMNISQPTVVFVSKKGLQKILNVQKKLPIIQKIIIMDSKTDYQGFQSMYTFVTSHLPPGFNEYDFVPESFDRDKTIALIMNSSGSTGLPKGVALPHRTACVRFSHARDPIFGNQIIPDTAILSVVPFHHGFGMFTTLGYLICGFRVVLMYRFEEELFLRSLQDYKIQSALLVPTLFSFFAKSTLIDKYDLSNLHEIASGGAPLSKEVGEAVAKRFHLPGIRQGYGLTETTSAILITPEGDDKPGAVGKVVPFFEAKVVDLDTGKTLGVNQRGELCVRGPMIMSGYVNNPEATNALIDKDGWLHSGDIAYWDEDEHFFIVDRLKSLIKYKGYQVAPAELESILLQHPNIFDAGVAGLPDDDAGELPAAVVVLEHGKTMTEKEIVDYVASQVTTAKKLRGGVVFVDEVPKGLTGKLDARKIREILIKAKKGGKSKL
Summary of the method: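 Purified P. pyralis luciferase, 10 nM final, with Km-level 10 uM D-luciferin and 10 uM ATP in 50 mM Tris acetate pH 7.5, 10 mM Mg acetate, 0.01% Tween-20, 0.05% BSA; 6-point qHTS titration about 60 µM downward; luminescence read.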
COc1ccc(S(=O)(=O)Oc2ccccc2C(N)=O)cc1 was tested, and the Potency was “inactive”. CCOC(=O)C1CCN(C2=NC(=O)/C(=C/c3ccc(OC)c(OC)c3)S2)CC1 was tested, and the Potency was inconclusive: 33.8 µM [inhibitor, partial curve, poor fit]. CC(=O)Nc1c(C)nn(-c2ccccc2)c1N1CCC(C(=O)Nc2ccc(F)cc2Cl)CC1 was tested, and the Potency was “inactive”. With CC(C)C[C@H]1CN=C(Nc2ccccc2)N1CC1CCCCCC1 the Potency was “inactive”. In the case of Cc1ccc(OCCNC(=O)c2ccccc2F)cc1, the Potency is reported as inconclusive: 33.8 µM [inhibitor, partial curve, poor fit]. In the case of CC(=O)Nc1ccc2nc(-c3ccccn3)[nH]c2c1, the Potency is reported as active: 19 µM. With O=C(/C=C\Nc1cccc(F)c1)c1ccc2c(c1)OCO2 the Potency was active: 0.12 µM. C/C(=N/NS(C)(=O)=O)c1ccc2ccccc2c1 was tested, and the Potency was inconclusive: 26.9 µM [inhibitor, single point]. For COc1ccc(-c2csc(Nc3ccccn3)n2)cc1OC, the Potency was active: 6.75 µM. With Cc1sc2ncnc(N3CCN(S(=O)(=O)c4ccc(F)cc4)CC3)c2c1C the Potency was “inactive”. With Cc1cc(C)cc(OCC(O)CN2CCC(CN3C(=O)c4cccc5cccc(c45)C3=O)CC2)c1 (stereo not drawn) the Potency was inconclusive: 26.9 µM [inhibitor, single point]. For COc1ccc(CNC(=O)Cn2nc3c(cc2=O)CCCC3)cc1, the Potency was “inactive”. With CCOC(=O)C1=C(C)N=c2s/c(=C3\C(=O)Nc4ccccc43)c(=O)n2C1c1ccc2c(c1)OCO2 (stereo not drawn) the Potency was inconclusive: 37.9 µM [inhibitor, single point]. In the case of COc1ccc(OCCNC(=O)Nc2cc(F)c(F)cc2Cl)cc1, the Potency is reported as “inactive”. With S=C(NCCc1c[nH]c2ccccc12)NC1CCCCC1 the Potency was inconclusive: 37.9 µM [inhibitor, single point]. For CCOC(=O)COc1ccc2c(c1)c(C(=O)OCC)c(C)n2CC, the Potency was “inactive”. CC(CN1C(C)CCCC1C)OC(=O)c1ccccc1F (stereo not drawn) was tested, and the Potency was “inactive”. In the case of COc1ccc2c(c1)c1c(c(=O)n(-c3ccc(F)c(Cl)c3)c(=O)n1Cc1cccc(C)c1)n2C, the Potency is reported as “inactive”. CCN1CCN(C(=O)CCc2nnc(CCCCc3ccccc3)o2)[C@@H](C)C1=O was tested, and the Potency was “inactive”. With CC(=O)Nc1ccc2nc(NC(=O)COc3ccccc3Cl)sc2c1 the Potency was inconclusive: 8.49 µM [inhibitor, partial curve, poor fit]. For COC(=O)CSc1nc2ccccc2o1, the Potency was inconclusive: 21.3 µM [inhibitor, partial curve, poor fit]. With Cc1cc(C)nc(NS(=O)(=O)c2ccc(NC(=O)CN3C(=O)c4ccccc4C3=O)cc2)n1 the Potency was “inactive”. Cc1ccnc(NC(=O)CCNC(=O)c2ccccc2Cl)c1 was tested, and the Potency was inconclusive: 23.9 µM [inhibitor, single point]. O=C(Nc1nc2ccccc2[nH]1)c1ccc(Cl)cc1 was tested, and the Potency was active: 0.426 µM. With Cc1cc(C)c(S(=O)(=O)Nc2cc(SCC(=O)O)c(O)c3ccccc23)cc1C the Potency was inconclusive: 37.9 µM [inhibitor, single point]. In the case of O=C(Nc1ccccc1)c1ccc(-c2ccc(Br)cc2)o1, the Potency is reported as active: 6.01 µM. For CC(N=c1ccccn1C(=O)Nc1ccc(Cl)cc1)c1ccco1 (stereo not drawn), the Potency was inconclusive: 3.01 µM [inhibitor, full curve]. With COc1ccc(N(C(=O)c2cccc([N+](=O)[O-])c2)S(=O)(=O)c2cccs2)cc1 the Potency was “inactive”. For CN(C(=O)COc1ccc(Cl)cc1Br)C1CCCCC1, the Potency was inconclusive: 26.9 µM [inhibitor, single point]. With CCOc1cc(C(=O)NC2=NCCS2)cc(OCC)c1OCC the Potency was inconclusive: 21.3 µM [inhibitor, partial curve, poor fit]. With Cc1ccccc1/C=N/NC(=O)c1sccc1C the Potency was active: 1.51 µM. With CCN(CC)CCN1C(=O)C(=O)/C(=C(/O)c2cnn(-c3ccccc3)c2C)C1c1ccc(C)o1 (stereo not drawn) the Potency was inconclusive: 37.9 µM [inhibitor, partial curve, poor fit]. With CC(C)Cc1nnc(NC(=O)CSc2nc(O)c(-c3ccccc3)c(=O)[nH]2)s1 the Potency was inconclusive: 10.7 µM [inhibitor, partial curve]. With Cc1ccc(S(=O)(=O)N(C)CC(=O)N/N=C/c2ccc(C)o2)cc1 the Potency was inconclusive: 6.75 µM [inhibitor, partial curve, poor fit]. With CCOc1ccc(C(C)=O)cc1N1C(=O)C2C3C=CC(O3)C2C1=O (stereo not drawn) the Potency was inconclusive: 30.1 µM [inhibitor, partial curve, poor fit]. In the case of CCn1ccc(C(=O)Nc2ncc(C)s2)n1, the Potency is reported as inconclusive: 2.39 µM [inhibitor, partial curve]. In the case of Cc1ccc(S(=O)(=O)NCCSc2ccccc2)cc1[N+](=O)[O-], the Potency is reported as “inactive”. In the case of NNc1nc(-c2ccccc2)cc(-c2ccccc2)n1, the Potency is reported as inconclusive: 30.1 µM [inhibitor, partial curve, poor fit]. In the case of O=S(=O)(Nc1ccc2nc(-c3ccc(F)cc3)oc2c1)c1ccccc1, the Potency is reported as inconclusive: 21.3 µM [inhibitor, single point]. For Oc1ccc(/C=C/c2ccc3cccc(O)c3n2)cc1Br, the Potency was active: 16.9 µM. For CC(C)(C)NC(=O)c1ccc(NC(=O)c2ccccc2-c2ccccc2C(=O)O)cc1, the Potency was “inactive”. For COc1cccc(CNC(=O)c2ccc3nc(N4CCCCC4)sc3c2)c1OC, the Potency was inconclusive: 23.9 µM [inhibitor, partial curve]. With O=C(Nc1ncccc1O)c1ccc2c(c1)OCO2 the Potency was inconclusive: 19 µM [inhibitor, partial curve]. CN1CCc2c(OCc3ccc(F)cc3)cccc2C1=O was tested, and the Potency was “inactive”. In the case of O=C(Nc1cccc(NC(=O)c2cccs2)c1)c1ccc(Br)cc1, the Potency is reported as inconclusive: 9.53 µM [inhibitor, partial curve]. In the case of CN1CCN(C(=O)CCN2C(=O)S/C(=C/c3ccc(Cl)cc3)C2=O)CC1, the Potency is reported as inconclusive: 19 µM [inhibitor, partial curve, poor fit]. With CCOc1ccc(S(=O)(=O)Nc2cccc(-c3ccc(N4CCCCCC4)nn3)c2)cc1 the Potency was active: 8.49 µM. With O=C1c2ccccc2C(=O)N1CCc1csc(NNc2nc(CCN3C(=O)c4ccccc4C3=O)cs2)n1 the Potency was inconclusive: 23.9 µM [inhibitor, partial curve, poor fit]. For COc1ccc2nc(SCC(=O)Nc3ccc(S(=O)(=O)Nc4nccc(C)n4)cc3)[nH]c2c1, the Potency was inconclusive: 23.9 µM [inhibitor, single point]. In the case of CC(C)C(=O)Nc1cccc(-c2nc3ncccc3o2)c1, the Potency is reported as “inactive”. For CCOC(=O)[C@H]1[C@H]2COc3ccc(OC)cc3[C@@H]2N2C(=O)CN(Cc3ccc(OC)cc3)C(=O)[C@@]12C, the Potency was “inactive”. With Cc1ccc(C(=O)NCCc2cccc(Cl)c2)cc1[N+](=O)[O-] the Potency was active: 26.9 µM. COc1ccc(CNC(=O)C/C(C)=N/NC(=O)COc2ccc(C)cc2Br)cc1 was tested, and the Potency was inconclusive: 30.1 µM [inhibitor, partial curve, poor fit].

From PubChem BioAssay AID588342 (National Center for Advancing Translational Sciences (NCATS), 2011)
Also: nearly all actives have a fitted effect of over 55% in size.
Potency is read from the fitted curve at half-maximal effect; tags tell the direction and shape of the fitted curve.
